About 3,600 (1.6%) of roughly 230,000 compounds were called active. The inconclusive results got no clear call from the source; some entries with a clear call stand among them for comparison. Calls come from the whole dose curve; as a rule, active = well fitted inhibition curve with a large enough effect (not every such curve was filed as active); inconclusive = small, poorly fitted or top-dose-only effect, or another doubt; inactive = no such curve, though single readings can be large or run the other way. Potencies beside an inconclusive call are fits to weak or partial responses and may not hold up.
Biological target: Lysine-specific demethylase 4E (Homo sapiens) (UniProt B2RXH2)
Chain of UniProt B2RXH2 (B2RXH2 whole entry, looked up, the tested form may be a part): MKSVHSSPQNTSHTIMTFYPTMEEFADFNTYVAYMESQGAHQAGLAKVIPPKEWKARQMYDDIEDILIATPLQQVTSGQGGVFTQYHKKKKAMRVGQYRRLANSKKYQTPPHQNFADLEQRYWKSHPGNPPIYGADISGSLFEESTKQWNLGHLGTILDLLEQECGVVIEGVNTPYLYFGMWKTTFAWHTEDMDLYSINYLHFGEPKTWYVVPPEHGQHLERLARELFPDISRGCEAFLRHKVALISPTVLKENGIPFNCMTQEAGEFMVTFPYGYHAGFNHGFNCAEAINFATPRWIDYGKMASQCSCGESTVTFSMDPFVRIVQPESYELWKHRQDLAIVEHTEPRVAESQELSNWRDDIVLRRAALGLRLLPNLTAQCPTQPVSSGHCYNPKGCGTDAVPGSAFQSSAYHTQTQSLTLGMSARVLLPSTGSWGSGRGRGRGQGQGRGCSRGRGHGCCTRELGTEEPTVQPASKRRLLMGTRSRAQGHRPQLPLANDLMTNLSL
Experiment: qHTS Assay for Inhibitors of Human Jumonji Domain Containing 2E (JMJD2E)
Settings: JMJD2E catalytic domain, FDH-coupled NADH fluorescence (FDH is formaldehyde dehydrogenase); series mostly up to 57.1 µM; activity change, negative = inhibition: at the top concentration
Note: nearly all actives have a fitted effect of over 50% in size.
Potency is the fitted concentration of half-maximal effect; tags give direction and shape of the fitted curve.
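Throughout, for activity change, negative = inhibition: 0% = wells with enzyme and -100% = buffer wells without enzyme.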

Row | SMILES | Potency | activity change, negative = inhibition
1 | O=[N+]([O-])c1c(Nc2ccccn2)cc(Cl)c2nonc12 | active: 1 µM | –
2 | C=CCn1c(-c2cc(Cl)ccc2OC)n[nH]c1=S | – | inactive: -2.36%
3 | CCOC(=O)c1[nH]c2ccc(Br)cc2c1NC(=O)CCN1CCC(C)CC1 | – | inactive: -8.12%
4 | CCOC(=O)c1sc2nc(C)nc(NCCc3ccccn3)c2c1C | inconclusive: 31.6 µM [inhibitor, partial curve] | –
5 | CC1(OC(=O)CCc2ccccc2)C(=O)C=C2C=C(c3ccc(C#N)cc3)N(c3ccccc3)C=C2C1=O (stereo not given) | active: 11.2 µM | –
6 | CC(C)(C)OC(=O)N1CC=C2C(C#N)=C(N)C(C#N)(C#N)[C@H](c3cccnc3)[C@H]2C1 | inconclusive: 31.6 µM [inhibitor, single point] | –
7 | Cc1cccc(NC(=S)NCCSc2ccc(Cl)cc2)c1 | – | inactive: 1.55%
8 | COc1ccc(OC)c(C(=O)c2coc3ccc(OCC(=O)O)cc23)c1 | inconclusive: 28.2 µM [inhibitor, partial curve] | –
9 | S=c1[nH]nc(Cc2cccc3ccccc23)o1 | inconclusive: 39.8 µM [inhibitor, single point] | –
10 | O=C(c1ccco1)N1CCn2cccc2C1c1ccccc1 (stereo not given) | inconclusive: 31.6 µM [inhibitor, single point] | –
11 | Cc1ccc2sc(N(CCCN(C)C)C(=O)c3ccc(Br)s3)nc2c1C | – | inactive: -4.59%
12 | CSc1ccc(S(=O)(=O)Nc2ccc(S(=O)(=O)Nc3ccc(C)cc3)cc2)cc1 | – | inactive: -7.81%
13 | N#Cc1c2c(c(-c3ccccc3Cl)[nH]c1=S)CCCC2 | – | inactive: 8.66%
14 | CCOC(=O)c1ccc2ncc(C(=O)OCC)c(Nc3ccc(N4CCOCC4)cc3)c2c1 | – | inactive: -4.32%
15 | Cc1nnc(SCC(=O)N2N=C(c3ccc(Cl)cc3)CC2c2ccco2)[nH]c1=O (stereo not given) | inconclusive: 31.6 µM [inhibitor, single point] | –
16 | COc1ccc(OC)c(N(CC(=O)Nc2ccc3c(c2)OCO3)S(=O)(=O)c2ccccc2)c1 | – | inactive: -1.22%
17 | Cc1cc(C)cc(NC(=O)CSc2ccc(-c3cccs3)nn2)c1 | inconclusive: 35.5 µM [inhibitor, single point] | –
18 | Cc1cc(C)nc(/N=C(\N)Nc2ccc(S(N)(=O)=O)cc2)n1 | inconclusive: 35.5 µM [inhibitor, single point] | –
19 | Cc1nn(CC(=O)N/N=C/c2ccc3c(c2)OCO3)c(C)c1Br | inconclusive: 35.5 µM [inhibitor, single point] | –
20 | O=C(COc1ccc2ccc(=O)oc2c1)Nc1ccc(N2CCOCC2)cc1 | inconclusive: 31.6 µM [inhibitor, partial curve] | –
21 | CNC(=S)N/N=C/c1ccc(OCc2ccccc2)c(Br)c1 | inconclusive: 25.1 µM [inhibitor, single point] | –
22 | COC(=O)CSc1nc2cc(OC)ccc2cc1C#N | inconclusive: 28.2 µM [inhibitor, single point] | –
23 | COC(=O)CSc1ncnc2c1sc1nc3c(cc12)COC(C)(C)C3 | – | inactive: 4.79%
24 | COC(=O)c1c(O)ccc(Oc2ccccc2)c1C(=O)OC | inconclusive: 22.4 µM [inhibitor, single point] | –

Row | SMILES | Potency | activity change, negative = inhibition
25 | O=C(O)CCN1C(=O)NC2(CCCC2)C1=O | – | inactive: 2.06%
26 | NC(=O)C1=C[C@H](c2ccc(Br)cc2)C[C@H](OCc2ccc(CO)cc2)O1 | inconclusive: 14.1 µM [inhibitor, partial curve] | –
27 | CCOc1ccc(NC(=O)c2cc3c(C)nc4ccccc4c3o2)cc1 | inconclusive: 39.8 µM [inhibitor, single point] | –
28 | NCCC[C@@H](CC(=O)N[C@@H]1CCNC[C@H]1C(=O)N[C@H](CC(=O)N[C@@H](CCC(=O)O)CC(=O)O)Cc1ccccc1)NC(=O)C[C@H](Cc1ccccc1)NC(=O)[C@@H]1CCCC[C@H]1N | – | inactive: -7.84%
29 | Cc1c(C(=O)NCc2ccc3c(c2)OCO3)oc2ccc(S(=O)(=O)N3CCC(C)CC3)cc12 | inconclusive: 39.8 µM [inhibitor, single point] | –
30 | COc1ccc2c(c1)-c1c(ssc1=S)C(C)(C)N2 | – | inactive: -21.2%
31 | COc1cc(/C=C/C(=O)C2C(=O)C=C(C)OC2=O)cc(OC)c1O (stereo not given) | inconclusive: 15.8 µM [inhibitor, partial curve] | –
32 | CC(C)(C)OC(=O)NCc1ccc(NC(=O)c2nc[nH]c2C(=O)N[C@@H](Cc2ccccc2)C(=O)OCc2ccccc2)cc1 | inconclusive: 35.5 µM [inhibitor, single point] | –
33 | CCOc1ccc2[nH]c(=O)c(C(c3nnnn3Cc3ccco3)N3CCC(C)CC3)cc2c1 (stereo not given) | inconclusive: 11.2 µM [inhibitor, partial curve] | –
34 | O=C1NC(c2ccccc2Br)=N/C1=C\c1ccco1 | – | inactive: -8.85%
35 | Cc1cc(C)n(C2CC(=O)N(c3ccc(Cl)c(Cl)c3)C2=O)n1 (stereo not given) | – | inactive: -2.05%
36 | C/C(=N\NC(=O)c1cc(-c2cccs2)nc2ccccc12)c1ccccn1 | inconclusive: 35.5 µM [inhibitor, single point] | –
37 | CCCS(=O)(=O)c1c(S(=O)(=O)CCC)c2c(N)cccn2c1C(=O)OC | inconclusive: 31.6 µM [inhibitor, single point] | –
38 | COc1ccc([C@@H]2[C@H]3CN(C(C)=O)CC=C3C(C#N)=C(N)C2(C#N)C#N)c2ccccc12 | inconclusive: 39.8 µM [inhibitor, single point] | –
39 | CCOC(=O)/C(C#N)=N/Nc1c(S(=O)(=O)Cc2ccco2)csc1C(=O)OC | inconclusive: 39.8 µM [inhibitor, single point] | –
40 | Oc1ccc(Br)cc1-c1ccn[nH]1 | – | inactive: -15%
41 | O=C(Nc1ccon1)c1cc2ccccc2oc1=O | inconclusive: 1.58 µM [inhibitor, partial curve] | –
42 | CCCC(=O)OCC(=O)Nc1ccc([N+](=O)[O-])cc1C#N | – | inactive: -2.4%
43 | Cc1ccc(C)c(SCC(=O)OC/C(O)=C(\C#N)c2nc3ccccc3[nH]2)c1 | inconclusive: 28.2 µM [inhibitor, single point] | –
44 | COC(=O)c1cc2nc(-c3ccccc3)cc(C(F)(F)F)n2n1 | inconclusive: 31.6 µM [inhibitor, partial curve] | –
45 | COc1ccc2sc3ccccc3c(=O)c2c1 | inconclusive: 28.2 µM [inhibitor, partial curve] | –
46 | O=C(N/N=C1\CC(c2ccccc2)Oc2ccccc21)c1cccnc1 (stereo not given) | inconclusive: 35.5 µM [inhibitor, single point] | –
47 | CCOC(=O)C1=C(C)n2c(s/c(=C3\C(=O)Nc4ccccc43)c2=O)=NC1c1ccc(OC)cc1 (stereo not given) | – | inactive: -9.21%
48 | Fc1ccccc1CSc1nnc(-c2cccnc2)o1 | – | inactive: 13.6%

Row | SMILES | Potency | activity change, negative = inhibition
49 | CC1CCCN(CCOCCSc2ccccc2)C1 (stereo not given) | inconclusive: 39.8 µM [inhibitor, single point] | –
50 | CC(=O)Nc1ccc2nc(CN3CCN(CC=C(C)C)C(CCO)C3)ccc2c1 (stereo not given) | inconclusive: 25.1 µM [inhibitor, partial curve] | –
51 | O=C(CSc1nnc(-c2ccccc2)o1)c1ccc2c(c1)OCCO2 | – | inactive: 6.2%
52 | COCc1cc(=O)oc2cc(NS(=O)(=O)c3ccc(C)cc3)ccc12 | inconclusive: 35.5 µM [inhibitor, single point] | –
53 | CCOc1ccc(NCc2nnc(SCc3ccccc3Cl)n2-c2ccccc2)cc1 | – | inactive: -5.99%
54 | NC(=O)CSC1=Nc2ccccc2C2=NC(CC(=O)NCc3cccs3)C(=O)N12 (stereo not given) | inconclusive: 39.8 µM [inhibitor, single point] | –
55 | C/C(=N\NC(=O)CCc1c(C)n[nH]c1C)c1ccc([N+](=O)[O-])cc1 | – | inactive: 2.43%
56 | CCCC1O[C@@H]2CC3C4CCC5=CC(=O)C=C[C@]5(C)C4C(OC(C)=O)C[C@]3(C)[C@]2(C(=O)COC(C)=O)O1 (stereo not given in full) | – | inactive: 2.76%
57 | C[C@@H]1Oc2ccccc2C=C1/C=C/C(=O)O | inconclusive: 35.5 µM [inhibitor, partial curve] | –
58 | Cc1ccc(-c2ccc([C@H]3[C@H]4C=CC[C@@H](C)[C@@H]4C(=O)N3Cc3ccccc3)c(F)c2)cc1 | inconclusive: 35.5 µM [inhibitor, single point] | –
59 | O=[N+]([O-])c1cccc(-c2nnc(C3CC3)o2)c1 | inconclusive: 28.2 µM [inhibitor, single point] | –
60 | COc1ccccc1NC(=O)c1cc(C(=O)Nc2ccccc2OC)cc(N2C(=O)CCC2=O)c1 | inconclusive: 28.2 µM [inhibitor, single point] | –
61 | CCc1cc2c3c(c1)C(C)CC(C)(C)N3C(=O)/C2=C1\SC(=O)NC1=O (stereo not given) | – | inactive: 2.41%
62 | Cc1ccc2[nH]c(=O)c(CN(CCCN3CCOCC3)C(=O)Nc3ccc(Cl)cc3)cc2c1 | inconclusive: 28.2 µM [inhibitor, single point] | –
63 | Cc1ccc2nc(-c3cccc(NC(=O)c4ccco4)c3)[nH]c2c1 | inconclusive: 35.5 µM [inhibitor, single point] | –
64 | Clc1ccc(CSc2nnc(-c3cccnc3)n2Cc2ccco2)c(Cl)c1 | inconclusive: 17.8 µM [inhibitor, single point] | –
65 | CCc1cc(C(=O)OC)c(NC(=O)CCC(=O)O)s1 | inconclusive: 35.5 µM [inhibitor, single point] | –
66 | Cc1ccc(-c2ccc(/C=C3\SC(N4CCOCC4)=NC3=O)o2)cc1 | – | inactive: -15.4%
67 | CN(C)S(=O)(=O)c1ccc(C(=O)Nc2nc3ccccc3[nH]2)cc1 | inconclusive: 35.5 µM [inhibitor, single point] | –
68 | CCC(C)(C)n1nnnc1C(c1ccc2ncccc2c1)N1CCN(c2nc3ccccc3s2)CC1 (stereo not given) | – | inactive: -15.2%
69 | Cc1cc(C(=O)NNS(=O)(=O)c2ccc(C(C)(C)C)cc2)nn1C(C)(C)C | – | inactive: -12.8%
70 | OC(CN1CCOCC1)Cn1c(-c2cccc(Cl)c2)nc2ccccc21 (stereo not given) | inconclusive: 39.8 µM [inhibitor, single point] | –
